Data taken from PubChem BioAssay AID686971 (National Center for Advancing Translational Sciences (NCATS), 2013).
The whole screen tested about 360,000 compounds, of which about 7,500 (2.1%) were called active. The shares of active, inactive and inconclusive entries below differ from those in the screen. Calls come from the whole dose curve; as a rule, active = well fitted cell-killing curve with a large enough effect; inconclusive = small, poorly fitted or top-dose-only effect, or effect the other way, or another doubt; inactive = no such curve, though single readings can be large or run the other way. No potency is given beside an inconclusive call; the fits are too rough.

Assay: qHTS for induction of synthetic lethality in tumor cells producing 2HG: qHTS for the HT-1080-IDH1KD cell line
Settings: HT-1080 IDH1 knockdown viability, ATP luminescence, 48 h; series mostly up to 46.1 µM
Procedure, shortened: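 Knockdown cells (IDH1KD HT-1080) received compounds 2 h after plating at 750 cells/well and were kept 48 h at 37 °C in 5% FBS RPMI. A CellTiter-Glo luminescence read gave % activity for curve fitting.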
Potency is the fitted concentration of half-maximal effect; tags give direction and shape of the fitted curve.

Q: Which Potency does the source give for `COc1ccc(/C=C/C(=O)c2ccc(O)cc2)cc1COc1ccc(F)cc1` here?
A: inconclusive [cytotoxic, single point]

Q: For `COCCN1C(=O)c2oc3cc(C)c(C)cc3c(=O)c2C1c1ccc(O)cc1` (centres undefined), which Potency is on record?
A: inactive

Q: For `Cc1ccc(-n2cc(CNCCCn3cccn3)c(-c3cccc(C)c3)n2)cc1`, which Potency is on record?
A: inconclusive [cytotoxic, single point]

Q: For `CC(C)(C)c1ccc(CC(=O)N2CCC2(C)C(=O)Nc2cccc3ccccc23)cc1` (centres undefined), which Potency is on record?
A: inconclusive [cytotoxic, single point]

Q: For `COc1ccc(/C=C/C(=O)c2ccc(OC)cc2OC)c(OC)c1`, which Potency is on record?
A: inconclusive [cytotoxic, single point]

Q: For `CC(C)C(=O)N1CCN(c2ccccc2NC(=O)c2ccc([N+](=O)[O-])o2)CC1`, which Potency is on record?
A: inconclusive [cytotoxic, single point]

Q: With `Cc1cc(NC(=O)c2ccc3sc([C@@H]4O[C@H](CO)[C@H](O)[C@H](O)[C@H]4O)nc3c2)n(C)n1` as the compound, how does the Potency read?
A: inconclusive [rising, single point]

Q: Which Potency does the source give for `O=[N+]([O-])c1ccc(O)c(-c2nc(-c3ccccc3)c(-c3cccs3)[nH]2)c1` here?
A: inconclusive [cytotoxic, partial curve]

Q: For `Cc1cccc(C)c1NC(=O)c1cccc2c1-c1ccccc1C2=O`, which Potency is on record?
A: inactive

Q: Which Potency does the source give for `CCn1c(SCC(=O)Nc2nc3ccc(OC)cc3s2)nc2c1c(=O)n(C)c(=O)n2C` here?
A: inconclusive [cytotoxic, single point]

Q: For `O=C(CSc1nc(C2CCCCC2)nc2ccccc12)N1CCCC1`, which Potency is on record?
A: inconclusive [cytotoxic, single point]

Q: Which Potency does the source give for `O=[N+]([O-])c1ccccc1S(=O)(=O)N(CC1CO1)c1ccccc1` (centres undefined) here?
A: inconclusive [cytotoxic, partial curve]

Q: Which Potency does the source give for `O=C(c1ccc(Br)cc1)c1cc([N+](=O)[O-])ccc1N1CCOCC1` here?
A: active: 5.8 µM

Q: For `Cc1cc(SCC#N)n2nc(C)c(-c3ccc(Cl)cc3)c2n1`, which Potency is on record?
A: active: 8.91 µM

Q: Which Potency does the source give for `Cc1ccc(S(=O)(=O)N(Cc2ccc([N+](=O)[O-])cc2)C(=O)N2CCN(C)CC2)cc1` here?
A: inactive

Q: Which Potency does the source give for `O=C(NC1CCCC1)C(c1cccs1)N(C(=O)c1ccno1)c1ccccc1` (centres undefined) here?
A: inconclusive [cytotoxic, single point]

Q: With `Cc1nn(Cc2ccc(Cl)cc2)c(C)c1NC(=O)c1c(-c2ccccc2)noc1C` as the compound, how does the Potency read?
A: inactive

Q: With `COc1ccc(-n2nc(C(=O)N3CCC(N4CCCCC4)CC3)c3c4ccccc4n(C)c3c2=O)cc1` as the compound, how does the Potency read?
A: inconclusive [cytotoxic, single point]

Q: Which Potency does the source give for `COC(=O)c1cc(C(=O)N2CCOCC2)cc([N+](=O)[O-])c1` here?
A: inactive

Q: For `Cc1cccc2c1N(CCCOc1ccccc1)C(=O)C2=O`, which Potency is on record?
A: inactive

Q: Which Potency does the source give for `Cc1cc(C)cc(N2CC(C(=O)OCC(=O)Nc3cc(C)on3)CC2=O)c1` (centres undefined) here?
A: inactive

Q: With `O=C(NCC1CCCN(Cc2ccc3nonc3c2)C1)c1cccc(C(F)(F)F)c1` (centres undefined) as the compound, how does the Potency read?
A: inactive

Q: Which Potency does the source give for `COc1ccc(OC)c(NC(=O)C2(C)CCN2CCc2ccccc2)c1` (centres undefined) here?
A: inconclusive [cytotoxic, single point]

Q: With `S=C(NCCCN1CCOCC1)N1CCN(c2nc(-c3ccccc3)cs2)CC1` as the compound, how does the Potency read?
A: active: 23.1 µM

Q: With `CC(=O)c1cccc(NC(=O)C(C)OC(=O)CCCN=C2NS(=O)(=O)c3ccccc32)c1` (centres undefined) as the compound, how does the Potency read?
A: inactive

Q: For `O=c1oc2ccccc2c(O)c1/C=N/c1ccccn1`, which Potency is on record?
A: inconclusive [cytotoxic, partial curve]

Q: For `CCCc1ccc(C(=O)Cn2nc(C(=O)O)c3ccccc3c2=O)cc1`, which Potency is on record?
A: inconclusive [cytotoxic, partial curve, poor fit]

Q: With `O=C(CSc1nnnn1C1CCCCC1)Nc1cccc(NC(=O)c2ccco2)c1` as the compound, how does the Potency read?
A: inconclusive [cytotoxic, single point]

Q: For `Cc1onc(-c2ccccc2Cl)c1C(=O)Nc1ccc(Br)cc1`, which Potency is on record?
A: inconclusive [cytotoxic, partial curve]

Q: With `CCOc1ccc(NC(=S)N=Nc2c(O)[nH]c3ccccc23)cc1` as the compound, how does the Potency read?
A: inconclusive [cytotoxic, partial curve]

Q: With `Cc1cc(C)c(CN2CCN(C(=O)Cn3cnc4c(NCc5ccccc5)ncnc43)CC2)c(C)c1` as the compound, how does the Potency read?
A: inconclusive [cytotoxic, partial curve]

Q: Which Potency does the source give for `COc1cc(/C=C2\SC(=O)N(CC(=O)Nc3cccc(C)c3)C2=O)cc([N+](=O)[O-])c1O` here?
A: inconclusive [cytotoxic, partial curve]

Q: Which Potency does the source give for `Nc1ccc(C#Cc2ccc3sc4ccccc4c(=O)c3c2)cc1` here?
A: inconclusive [cytotoxic, single point]

Q: Which Potency does the source give for `Cc1nnnn1/C(=C\c1ccccc1)C(=O)OCC(=O)NC(C)(C)C` here?
A: inconclusive [cytotoxic, single point]

Q: For `C#CCOC(=O)CN1C(=O)c2cccc3cccc(c23)C1=O`, which Potency is on record?
A: inactive

Q: For `Clc1cccc(Cl)c1C[n+]1cccc2ccccc21`, which Potency is on record?
A: inconclusive [cytotoxic, full curve]

Q: With `Cc1sc2nc[nH]c(=S)c2c1-c1ccccc1` as the compound, how does the Potency read?
A: inconclusive [cytotoxic, single point]

Q: With `CC(=O)Oc1ccc2ccc3ccc(C(C)=O)cc3c2c1` as the compound, how does the Potency read?
A: inconclusive [cytotoxic, single point]

Q: For `COc1ccccc1NC(=S)NNC(=S)Nc1ccc(OC(F)F)cc1`, which Potency is on record?
A: inconclusive [cytotoxic, partial curve]

Q: For `Cc1ccc(C)c(-c2nnc(NC(=O)c3ccc([N+](=O)[O-])o3)o2)c1`, which Potency is on record?
A: inconclusive [cytotoxic, partial curve, poor fit]

Q: Which Potency does the source give for `O=C(N/N=C/c1ccc([N+](=O)[O-])o1)c1cc2c(ccc3ccccc32)o1` here?
A: inactive

Q: With `Cc1cc(Nc2ccc(C)c(C)c2)c2ccccc2n1` as the compound, how does the Potency read?
A: active: 16.4 µM

Q: Which Potency does the source give for `N#CC1=C(N)Oc2cc(N)ccc2C1c1ccccc1F` (centres undefined) here?
A: active: 16.4 µM

Q: For `C/C(Cl)=C/Cn1c(NCCN(C)C)nc2c1c(=O)n(C)c(=O)n2C`, which Potency is on record?
A: inactive
